Data reported in the supplement of paper PMC4967469.
The IC50 comes from the fitted curve, where viability falls to half of the control; where the fit passes the top or lowest dose, that dose stands as a limit. AUC is the area under the same curve over the 256-fold range up to the top dose, as a fraction; values near 1 show little effect. Where the top dose is marked as inferred, it was derived from the fitted curves, not read from the paper.

Assays:
Experiment in all cases: Viability of human cancer cell lines after 72 h of drug (GDSC screen)
PFI-1 = compound: COc1ccccc1S(=O)(=O)Nc1ccc2c(c1)CN(C)C(=O)N2 [PFI-1]; conditions: top dose 10 µM; top dose inferred
Protocol: (§1)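 Human cancer cell lines in 384-well plates, medium with 10% serum, drug for 72 h over a 256-fold dose range (nine 2-fold or five 4-fold steps up to the top dose). Adherent lines were fixed and stained with the nucleic acid dye Syto60, suspension lines read with resazurin; signal relative to control wells, capped at 0 and 100%. One two-parameter sigmoid per drug and line, fitted in a mixed model over all curves with the slope shared within a line.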

Tipifarnib = compound: Cn1cncc1[C@@](N)(c1ccc(Cl)cc1)c1ccc2c(c1)c(-c1cccc(Cl)c1)cc(=O)n2C [Tipifarnib]; conditions: top dose 16 µM; top dose inferred
Protocol: as §1

GSK-1904529A = compound: CCc1cc(Nc2nccc(-c3c(-c4ccc(OC)c(C(=O)Nc5c(F)cccc5F)c4)nc4ccccn34)n2)c(OC)cc1N1CCC(N2CCN(S(C)(=O)=O)CC2)CC1 [GSK-1904529A]; conditions: top dose 1.024 µM; top dose inferred
Protocol: as §1

BMS-509744 = compound: COc1cc(C)c(Sc2cnc(NC(=O)c3ccc(CNC(C)C(C)(C)C)cc3)s2)cc1C(=O)N1CCN(C(C)=O)CC1 [BMS-509744]; conditions: top dose 10.24 µM; top dose inferred
Protocol: as §1

NG-25 = compound: CCN1CCN(Cc2ccc(NC(=O)c3ccc(C)c(Oc4ccnc5[nH]ccc45)c3)cc2C(F)(F)F)CC1 [NG-25]; conditions: top dose 10.24 µM; top dose inferred
Protocol: as §1

| Cell Line | AUC (PFI-1) | IC50 (PFI-1) | AUC (Tipifarnib) | IC50 (Tipifarnib) | AUC (GSK-1904529A) | IC50 (GSK-1904529A) | AUC (BMS-509744) | IC50 (BMS-509744) | AUC (NG-25) | IC50 (NG-25) |
| --- | --- | --- | --- | --- | --- | --- | --- | --- | --- | --- |
| MEG-01 (chronic myeloid leukaemia, suspension) | 0.765 | 3.45 µM | 0.651 | 2.55 µM | 0.988 | > 1.02 µM | 0.969 | > 10.2 µM | 0.034 | < 0.04 µM |
| MLMA (hairy cell leukaemia, semi-adherent) | 0.738 | 3.02 µM | 0.85 | 12.3 µM | 0.986 | > 1.02 µM | 0.917 | > 10.2 µM | 0.352 | 0.248 µM |
| ETK-1 (biliary tract, adherent) | 0.809 | 6.1 µM | 0.242 | 0.16 µM | 0.977 | > 1.02 µM | 0.64 | 1.65 µM | 0.711 | 2.76 µM |
| LOUCY (T-cell lymphoblastic leukaemia, suspension) | 0.74 | 2.59 µM | 0.909 | 15.1 µM | 0.991 | > 1.02 µM | 0.888 | 7.84 µM | 0.536 | 0.789 µM |
| SU-DHL-16 (B-cell lymphoma, suspension) | 0.776 | 2.95 µM | 0.46 | 0.8 µM | 0.815 | 0.383 µM | 0.953 | > 10.2 µM | 0.251 | 0.159 µM |
| A101D (melanoma, adherent) | 0.748 | 3.86 µM | 0.596 | 1.95 µM | 0.951 | > 1.02 µM | 0.802 | 6.46 µM | 0.924 | > 10.2 µM |
| BB49-HNC (head and neck, adherent) | 0.789 | 6.58 µM | 0.68 | 3.93 µM | 0.902 | > 1.02 µM | 0.935 | > 10.2 µM | 0.883 | > 10.2 µM |
| RPMI-6666 (Hodgkin lymphoma, suspension) | 0.829 | 8.01 µM | 0.282 | 0.209 µM | 0.927 | > 1.02 µM | 0.954 | > 10.2 µM | 0.327 | 0.19 µM |
| BT-474 (breast, adherent) | 0.908 | > 10 µM | 0.884 | > 16 µM | 0.966 | > 1.02 µM | 0.981 | > 10.2 µM | 0.897 | > 10.2 µM |
| KNS-42 (glioma, adherent) | 0.874 | > 10 µM | 0.718 | 4.75 µM | 0.962 | > 1.02 µM | 0.866 | > 10.2 µM | 0.875 | > 10.2 µM |
| KM12 (large intestine, adherent) | 0.97 | > 10 µM | 0.245 | 0.171 µM | 0.948 | > 1.02 µM | 0.678 | 2.11 µM | 0.923 | > 10.2 µM |
| LU-65 (large cell lung carcinoma, suspension) | 0.978 | > 10 µM | 0.858 | > 16 µM | 0.914 | > 1.02 µM | 0.922 | > 10.2 µM | 0.879 | > 10.2 µM |
| LB831-BLC (bladder, adherent) | 0.875 | > 10 µM | 0.648 | 2.6 µM | 0.959 | > 1.02 µM | 0.775 | 4.11 µM | 0.747 | 3.33 µM |
| TUR (B-cell lymphoma, suspension) | 0.835 | 5.86 µM | 0.484 | 0.906 µM | 0.985 | > 1.02 µM | 0.983 | > 10.2 µM | 0.85 | 6.88 µM |
| WSU-DLCL2 (B-cell lymphoma, suspension) | 0.892 | 8.27 µM | 0.906 | 15.2 µM | 0.993 | > 1.02 µM | 0.993 | > 10.2 µM | 0.931 | > 10.2 µM |
| NCI-SNU-5 (stomach, suspension) | 0.977 | > 10 µM | 0.918 | > 16 µM | 0.989 | > 1.02 µM | 0.98 | > 10.2 µM | 0.989 | > 10.2 µM |
| OCUB-M (breast, adherent) | 0.891 | 8.88 µM | 0.386 | 0.51 µM | 0.969 | > 1.02 µM | 0.85 | 6.2 µM | 0.828 | 5.19 µM |
| IST-MEL1 (melanoma, adherent) | 0.939 | > 10 µM | 0.612 | 2.16 µM | 0.976 | > 1.02 µM | 0.819 | 7.3 µM | 0.802 | 6.21 µM |
| DB (B-cell lymphoma, suspension) | 0.785 | 4.86 µM | 0.799 | 8.83 µM | 0.983 | > 1.02 µM | 0.939 | > 10.2 µM | 0.707 | 2.67 µM |
| OCI-AML5 (acute myeloid leukaemia, suspension) | 0.899 | > 10 µM | 0.727 | 4.14 µM | 0.989 | > 1.02 µM | 0.807 | 4.73 µM | 0.73 | 2.7 µM |
